In all, about 360,000 compounds went through this assay and about 2,600 (0.72%) were called active. This list was built around the results that the source calls inconclusive (neither active nor inactive); the mix of calls is not that of the screen. Calls come from the whole dose curve; as a rule, active = well fitted inhibition curve with a large enough effect; inconclusive = small, poorly fitted or top-dose-only effect; inactive = no such curve, though single readings can be large or run the other way. Potencies beside an inconclusive call are fits to weak or partial responses and may not hold up.
Experiment: Primary qHTS for Inhibitors of ATXN expression; note: nearly all actives have a fitted effect of over 55% in size
Details: HEK-293 ATXN2-luciferase reporter, luminescence, 24 h; activity change, negative = inhibition: at 57 µM (top of the series)
Summary of the method: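 qHTS (up to 57 uM final) was run with 24 h compound exposure of reporter cells at 37 °C. Each well was multiplexed: SteadyGlo luminescence measured ATXN2-luciferase expression after a fluorogenic Gly-Phe-AFC viability readout (25 uM final).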
% is set by controls: 0 for no effect and ±100 for the full control effect; potency is the fitted concentration of half-maximal effect; tags give direction and shape of the fitted curve.

Which Potency does the source give for Cc1ccc(NC(=O)Cn2c(=O)n(-c3ccc(Cl)c(Cl)c3)c(=O)c3c(C)c(C)sc32)c(C)c1 here?
The Potency was “inactive”.

With NS(=O)(=O)c1cccc(NC(=O)CN2C(=O)C(=O)N(Cc3ccccc3)C2=O)c1 as the compound, how does the Potency read?
The Potency was “inactive”.

For CCCOc1cccc(-c2cc(C(=O)N/N=C/c3ccccn3)c3ccccc3n2)c1, which Potency is on record?
The Potency was active: 7.08 µM.

With O=C(O)CN1C(=O)/C(=C\C(Br)=C\c2ccccc2)SC1=S as the compound, how does the Potency read?
The Potency was inconclusive: 37.7 µM [inhibitor, single point].

With CC1=C(C(=O)Nc2ccc([N+](=O)[O-])cc2)C(c2cccc(C(F)(F)F)c2)NC(=S)N1c1ccccc1 (stereo not given) as the compound, how does the Potency read?
The Potency was inconclusive: 39.8 µM [inhibitor, partial curve, poor fit].

For O=c1c(/C=N/O)c(Nc2ccccc2)nc2ccccn12, which Potency is on record?
The Potency was inconclusive: 11.2 µM [inhibitor, partial curve, poor fit].

For O=C(c1ccc(S(=O)(=O)N2CCCCC2)cc1)N1CCN(CCN2C(=O)c3cccc4cccc(c34)C2=O)CC1, which Potency is on record?
Its Potency is inconclusive: 26.7 µM [inhibitor, single point].

Which Potency does the source give for CCOC(=O)c1ccc(NC(=O)c2c(NCc3cccs3)sc3c2CCCCC3)cc1 here?
The Potency was inconclusive: 39.8 µM [inhibitor, single point].

With O=C(CCN1C(=O)/C(=C/c2ccccc2)SC1=S)N[C@@H](CO)Cc1ccccc1 as the compound, how does the Potency read?
The Potency was inconclusive: 39.8 µM [inhibitor, single point].

For COCCNc1nc(Oc2ccc(NC(C)=O)cc2)c2sc(-c3ccccc3)cc2n1, which Potency is on record?
Its Potency is inconclusive: 31.6 µM [inhibitor, single point].

For COc1ccccc1NC(=O)N(C)C[C@@H]1OCc2ccccc2-c2c(n(C)c3ccccc23)C(=O)N([C@H](C)CO)C[C@@H]1C, which Potency is on record?
The Potency was inconclusive: 39.8 µM [inhibitor, single point].

With CN(C)CCCN(C(=O)c1ccc(S(=O)(=O)N(C)Cc2ccccc2)cc1)c1nc2c(F)cccc2s1 as the compound, how does the Potency read?
The Potency was inconclusive: 22.4 µM [inhibitor, partial curve].

Which Potency does the source give for C=Cc1ccc(Cn2c(C(=O)O)c(CNCc3cccs3)c3ccc(C)cc32)cc1 here?
The Potency was inconclusive: 39.8 µM [inhibitor, single point].

Which Potency does the source give for Cc1ccc(Cn2c(=O)n(-c3ccccc3)c(=O)c3ccc(C(=O)NCc4ccco4)cc32)cc1 here?
The Potency was inconclusive: 39.8 µM [inhibitor, single point].

For O=C(N/N=C/c1ccc[nH]1)c1ccc(O)cc1, which Potency is on record?
The Potency was “inactive”.

Which Potency does the source give for Cc1ccccc1NC(=O)c1ccc2nc(Cc3ccccc3)oc2c1 here?
The Potency was inconclusive: 12.6 µM [inhibitor, partial curve, poor fit].

For COc1ccnc(CSC(N)=Nc2cccc(C(F)(F)F)c2)c1, which Potency is on record?
Its Potency is inconclusive: 28.2 µM [inhibitor, partial curve, poor fit].

With CCc1ccc(Nc2n[n+](-c3ccccc3)c(-c3cccc(Cl)c3Cl)s2)cc1 as the compound, how does the Potency read?
The Potency was inconclusive: 28.2 µM [inhibitor, partial curve, poor fit].

Which Potency does the source give for CC12CCC(=O)N1C(C(=O)Nc1ccc(S(=O)(=O)N3CCCCC3)cc1)CS2 (stereo not given) here?
The Potency was “inactive”.

For COc1cccc(C(=O)Nc2ccc(Cl)c(-c3nc4ccccc4[nH]3)c2)c1, which Potency is on record?
Its Potency is inconclusive: 22.4 µM [inhibitor, single point].

Which Potency does the source give for Cc1ccc(C2c3c(-c4ccccc4O)n[nH]c3C(=O)N2CCCO)cc1 (stereo not given) here?
The Potency was “inactive”.

Which Potency does the source give for Cn1nnnc1SCCNCc1ccccc1OCc1ccccc1F here?
Its Potency is inconclusive: 39.8 µM [inhibitor, partial curve, poor fit].

For FC(F)(F)c1nnc(-c2ccccc2)nc1Sc1ccc(Cl)cc1, which Potency is on record?
Its Potency is active: 28.2 µM.

With Oc1ccc2c(c1)OCC1(O)Cc3cc(O)c(O)cc3C21 (stereo not given) as the compound, how does the Potency read?
Its Potency is inconclusive: 39.8 µM [inhibitor, partial curve, poor fit].

Which Potency does the source give for CCc1cc(C)cc(OCCNC(=O)c2cncc(Br)c2)c1 here?
Its Potency is inconclusive: 25.1 µM [inhibitor, single point].

For O=C(N/N=C/c1ccc(N2CCOCC2)cc1)c1ccccc1OCCOc1ccccc1, which Potency is on record?
The Potency was inconclusive: 39.8 µM [inhibitor, single point].

Which Potency does the source give for CCOC(=O)c1nc(-c2ccccc2)oc1N1CCOCC1 here?
The Potency was “inactive”.

With COc1ccc(NC(=S)N(CCc2c(C)[nH]c3ccccc23)Cc2ccco2)cc1 as the compound, how does the Potency read?
The Potency was inconclusive: 22.4 µM [inhibitor, partial curve, poor fit].

For CCN(CC)C(=O)[C@H]1CC(CC(=O)NCc2cccc(C(F)(F)F)c2)C(=O)N2CCc3c([nH]c4ccccc34)[C@]12C (stereo not given in full), which Potency is on record?
The Potency was inconclusive: 39.8 µM [inhibitor, single point].

For CNS(=O)(=O)c1cccc(C(=O)OCc2cc(=O)oc3c(C)c(O)ccc23)c1, which Potency is on record?
Its Potency is inconclusive: 25.1 µM [inhibitor, partial curve, poor fit].

Which Potency does the source give for O=C1/C(=C/c2cccc([N+](=O)[O-])c2)CCc2ccccc21 here?
The Potency was “inactive”.

For CC1(C(=O)Nc2ccc(F)c(Cl)c2)Cc2c(-c3ccc(C(N)=O)cc3)ccnc2O1 (stereo not given), which Potency is on record?
The Potency was inconclusive: 35.5 µM [inhibitor, single point].

With CSc1nc2nccc(-c3ccc(Oc4ccccc4)cc3)n2n1 as the compound, how does the Potency read?
The Potency was “inactive”.

Which Potency does the source give for CCOC(=O)c1ccc(N2C(=O)c3[nH]nc(-c4ccc(C)cc4)c3C2c2ccc(O)c(OCC)c2)cc1 (stereo not given) here?
Its Potency is inconclusive: 39.8 µM [inhibitor, single point].

For Cc1cccc(C(=O)CC(=O)c2cc(Cl)ccc2O)c1, which Potency is on record?
Its Potency is inconclusive: 35.5 µM [inhibitor, single point].

With CC(=O)N1c2ccc(S(=O)(=O)N3CCC(C(=O)Nc4cc(C)cc(C)c4)CC3)cc2CC1C (stereo not given) as the compound, how does the Potency read?
Its Potency is inconclusive: 3.55 µM [inhibitor, partial curve].

For Cn1c(-c2cccc([N+](=O)[O-])c2)[n+](C)c2ccccc21, which Potency is on record?
The Potency was inconclusive: 10.6 µM [inhibitor, partial curve, poor fit].

Which Potency does the source give for CC(C)Cc1ccc(S(=O)(=O)N2CCC(c3ccncc3)CC2)cc1 here?
The Potency was active: 15.8 µM.

With Cc1ccc(Cn2c(CN3CCC(C(=O)NCc4ccccc4C)CC3)cc3ccccc32)cc1 as the compound, how does the Potency read?
Its Potency is “inactive”.

For C=CCOC(=O)c1[nH]c2c(c1C)C(=O)CC(c1cc(OC)c(OC)c(OC)c1)C2 (stereo not given), which Potency is on record?
Its Potency is inconclusive: 8.91 µM [inhibitor, partial curve, poor fit].

For Cn1c(N)c(C(=O)COC(=O)c2ccccc2C(=O)c2ccc(Cl)c([N+](=O)[O-])c2)c(=O)n(C)c1=O, which Potency is on record?
The Potency was inconclusive: 35.5 µM [inhibitor, single point].

For Cc1ccc(OCCNC(=O)[C@H]2O[C@@H](n3ccc(N)nc3=O)[C@H](O)[C@@H]2O)cc1C, which Potency is on record?
The Potency was “inactive”.

With CCOC(=O)c1c(C)n(-c2ccccc2)c2ccc(OC(=O)c3ccccc3NC(=O)C(C)C)cc12 as the compound, how does the Potency read?
Its Potency is inconclusive: 39.8 µM [inhibitor, single point].

Which Potency does the source give for CCCCCCCCCCCCCCNCCO here?
The Potency was “inactive”.

Which Potency does the source give for CCN(CC)C(=O)[C@H]1C[C@H](CC(=O)NCc2cccc(C(F)(F)F)c2)C(=O)N2CCc3c([nH]c4cc(-c5ccco5)ccc34)[C@]12C here?
Its Potency is inconclusive: 39.8 µM [inhibitor, single point].

For CCCCNC(=O)C1(C)CCN1C(=O)c1csnn1 (stereo not given), which Potency is on record?
The Potency was “inactive”.

With NC1CCCCC1N=Cc1c(O)n(CCc2ccc(F)cc2)c(=O)[nH]c1=O (stereo not given) as the compound, how does the Potency read?
Its Potency is inconclusive: 39.8 µM [inhibitor, partial curve, poor fit].

For Oc1ccc(F)c2cccnc12, which Potency is on record?
Its Potency is “inactive”.

Which Potency does the source give for Cc1cccnc1C(NC(=O)C1CCN(CCOc2ccc(Cl)cc2Cl)CC1)c1ccc(Cl)cc1 (stereo not given) here?
The Potency was active: 20 µM.

For O=C(NCC1CCOCC1)c1cc(COc2cccc(C(F)(F)F)c2)on1, which Potency is on record?
The Potency was inconclusive: 22.4 µM [inhibitor, partial curve].

For O=C(C=P(c1ccccc1)(c1ccccc1)c1ccccc1)c1ccccc1-c1ccccc1C(=O)C=P(c1ccccc1)(c1ccccc1)c1ccccc1, which Potency is on record?
The Potency was inconclusive: 2 µM [inhibitor, full curve, poor fit].

With CCCCCCCC/C=C\CCCCCCCC(=O)NCCc1ccc(O)c(O)c1 as the compound, how does the Potency read?
The Potency was active: 15.8 µM.

Which Potency does the source give for Cc1ccc(NCCC(=O)c2cccc([N+](=O)[O-])c2)cc1 here?
The Potency was “inactive”.

For O=C(NC1CCCCC1)c1n[nH]c2c1CCCCC2, which Potency is on record?
Its Potency is active: 10 µM.

With C=CCn1c(SCc2ccc(C(=O)Nc3nccs3)cc2)nnc1-c1ccc(C)c(Cl)c1 as the compound, how does the Potency read?
Its Potency is inconclusive: 25.1 µM [inhibitor, partial curve, poor fit].

For Cc1ccc(N(C(=O)c2ccco2)C(C(=O)NC2CCCC2)c2cccnc2)cc1C (stereo not given), which Potency is on record?
Its Potency is “inactive”.

With CC(=O)Oc1ccc(-c2csnn2)cc1 as the compound, how does the Potency read?
The Potency was “inactive”.

For O=C(CSc1n[nH]c(-c2ccccn2)n1)Nc1ccc(F)cc1, which activity change, negative = inhibition is on record?
The activity change, negative = inhibition was inconclusive: -71.9% [inhibitor].

For O=C(Nc1ccc([N+](=O)[O-])cc1)/C(=C/c1cccc([N+](=O)[O-])c1)NC(=O)C1CCCCC1, which Potency is on record?
The Potency was “inactive”.

With COc1ccc(-c2nc3ccccc3s2)cc1O as the compound, how does the Potency read?
The Potency was “inactive”.

For CC[n+]1ccc(/C=C/c2ccc(N(C)C)cc2)c2ccccc21, which Potency is on record?
Its Potency is inconclusive: 1.26 µM [inhibitor, partial curve, poor fit].

With Cc1ccc(S(=O)(=O)NCc2cccnc2)s1 as the compound, how does the Potency read?
The Potency was inconclusive: 22.4 µM [inhibitor, partial curve, poor fit].

With COc1ccc2[nH]c3c(N4CCN(Cc5ccc6c(c5)OCO6)CC4)ncnc3c2c1 as the compound, how does the Potency read?
The Potency was active: 28.2 µM.

With O=C1OC(c2ccccc2)(c2cc(Br)ccc2O)c2ccccc21 (stereo not given) as the compound, how does the Potency read?
Its Potency is inconclusive: 10 µM [inhibitor, partial curve, poor fit].

Which Potency does the source give for C/C(Cn1nnc([N+](=O)[O-])n1)=N\NC(=O)c1ccc(O)cc1O here?
Its Potency is inconclusive: 17.8 µM [inhibitor, partial curve, poor fit].

From PubChem BioAssay AID1745845 (National Center for Advancing Translational Sciences (NCATS), 2022)
